No constants are given. Whether binding was seen depends on the method and setting. Binding seen in cells or lysates may run through a third protein. Sequences can lack the tags named with a protein.
Columns and labels:
[1] = target: T1, Flag-tagged JMJD2A amino acids 2-350 (UniProt O75164); assay: co-IP; 293T cells transiently cotransfected with a Flag-tagged and a 6Myc-tagged protein; cell extracts two days after transfection; immunoprecipitation with anti-Flag antibodies, anti-Myc Western blot
T1 sequence: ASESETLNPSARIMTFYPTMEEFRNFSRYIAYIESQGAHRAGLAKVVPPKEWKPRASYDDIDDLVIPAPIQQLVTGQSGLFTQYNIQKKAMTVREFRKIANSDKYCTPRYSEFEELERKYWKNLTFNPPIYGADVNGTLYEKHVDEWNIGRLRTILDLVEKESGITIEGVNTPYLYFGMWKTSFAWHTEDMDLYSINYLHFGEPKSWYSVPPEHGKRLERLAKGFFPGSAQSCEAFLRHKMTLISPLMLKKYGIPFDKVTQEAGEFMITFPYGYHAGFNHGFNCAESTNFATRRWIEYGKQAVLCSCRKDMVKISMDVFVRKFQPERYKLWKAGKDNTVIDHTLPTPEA

[2] = target: T2, Flag-tagged JMJD2A amino acids 301-1064 (UniProt O75164); assay: as above
T2 sequence: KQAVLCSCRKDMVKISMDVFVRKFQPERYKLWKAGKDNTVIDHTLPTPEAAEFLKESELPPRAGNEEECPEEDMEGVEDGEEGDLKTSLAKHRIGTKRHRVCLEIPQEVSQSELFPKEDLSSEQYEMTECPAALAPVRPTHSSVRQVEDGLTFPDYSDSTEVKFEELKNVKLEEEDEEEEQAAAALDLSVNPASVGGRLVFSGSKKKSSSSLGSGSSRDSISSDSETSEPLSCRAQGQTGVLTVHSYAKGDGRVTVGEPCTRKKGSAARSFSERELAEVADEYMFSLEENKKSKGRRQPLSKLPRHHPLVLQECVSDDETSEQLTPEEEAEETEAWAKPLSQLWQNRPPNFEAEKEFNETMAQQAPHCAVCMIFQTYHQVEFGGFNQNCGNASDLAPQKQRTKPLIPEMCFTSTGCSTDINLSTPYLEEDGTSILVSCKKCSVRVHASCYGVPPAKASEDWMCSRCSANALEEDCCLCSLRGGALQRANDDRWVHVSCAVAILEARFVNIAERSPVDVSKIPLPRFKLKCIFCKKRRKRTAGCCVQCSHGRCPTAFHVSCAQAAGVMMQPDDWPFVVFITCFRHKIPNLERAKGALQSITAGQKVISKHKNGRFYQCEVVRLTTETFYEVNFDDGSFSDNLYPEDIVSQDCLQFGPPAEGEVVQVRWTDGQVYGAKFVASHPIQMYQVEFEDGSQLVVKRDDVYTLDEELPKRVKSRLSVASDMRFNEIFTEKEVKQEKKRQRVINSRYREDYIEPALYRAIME

- binding [1]: no binding
- binding [2]: no binding
B1: 6Myc-JMJD1A (protein, UniProt Q9Y4C1 1-1321)
chain: MVLTLGESWPVLVGRRFLSLSAADGSDGSHDSWDVERVAEWPWLSGTIRAVSHTDVTKKDLKVCVEFDGESWRKRRWIEVYSLLRRAFLVEHNLVLAERKSPEISERIVQWPAITYKPLLDKAGLGSITSVRFLGDQQRVFLSKDLLKPIQDVNSLRLSLTDNQIVSKEFQALIVKHLDESHLLKGDKNLVGSEVKIYSLDPSTQWFSATVINGNPASKTLQVNCEEIPALKIVDPSLIHVEVVHDNLVTCGNSARIGAVKRKSSENNGTLVSKQAKSCSEASPSMCPVQSVPTTVFKEILLGCTAATPPSKDPRQQSTPQAANSPPNLGAKIPQGCHKQSLPEEISSCLNTKSEALRTKPDVCKAGLLSKSSQIGTGDLKILTEPKGSCTQPKTNTDQENRLESVPQALTGLPKECLPTKASSKAELEIANPPELQKHLEHAPSPSDVSNAPEVKAGVNSDSPNNCSGKKVEPSALACRSQNLKESSVKVDNESCCSRSNNKIQNAPSRKSVLTDPAKLKKLQQSGEAFVQDDSCVNIVAQLPKCRECRLDSLRKDKEQQKDSPVFCRFFHFRRLQFNKHGVLRVEGFLTPNKYDNEAIGLWLPLTKNVVGIDLDTAKYILANIGDHFCQMVISEKEAMSTIEPHRQVAWKRAVKGVREMCDVCDTTIFNLHWVCPRCGFGVCVDCYRMKRKNCQQGAAYKTFSWLKCVKSQIHEPENLMPTQIIPGKALYDVGDIVHSVRAKWGIKANCPCSNRQFKLFSKPASKEDLKQTSLAGEKPTLGAVLQQNPSVLEPAAVGGEAASKPAGSMKPACPASTSPLNWLADLTSGNVNKENKEKQPTMPILKNEIKCLPPLPPLSKSSTVLHTFNSTILTPVSNNNSGFLRNLLNSSTGKTENGLKNTPKILDDIFASLVQNKTTSDLSKRPQGLTIKPSILGFDTPHYWLCDNRLLCLQDPNNKSNWNVFRECWKQGQPVMVSGVHHKLNSELWKPESFRKEFGEQEVDLVNCRTNEIITGATVGDFWDGFEDVPNRLKNEKEPMVLKLKDWPPGEDFRDMMPSRFDDLMANIPLPEYTRRDGKLNLASRLPNYFVRPDLGPKMYNAYGLITPEDRKYGTTNLHLDVSDAANVMVYVGIPKGQCEQEEEVLKTIQDGDSDELTIKRFIEGKEKPGALWHIYAAKDTEKIREFLKKVSEEQGQENPADHDPIHDQSWYLDRSLRKRLHQEYGVQGWAIVQFLGDVVFIPAGAPHQVHNLYSCIKVAEDFVSPEHVKHCFWLTQEFRYLSQTHTNHEDKLQVKNVIYHAVKDAVAMLKASESSFGKP
